In PubChem BioAssay AID1645882 (National Center for Advancing Translational Sciences (NCATS), 2021):
Screen size: about 16,000 compounds; about 120 (0.75%) were called active. Roughly 4% stayed inconclusive and do not appear here. The call rests on the fitted dose curve; in most records, active means well fitted inhibition curve with a large enough effect; inconclusive means small, poorly fitted or top-dose-only effect; inactive means no such curve, though single readings can be large or run the other way. Some of the results follow.

molecular target: Rap guanine nucleotide exchange factor 3 (Homo sapiens) (UniProt O95398); test: Validation qHTS for antagonist of cAMP-regulated guanine nucleotide exchange factor 3 (EPAC1); conditions: EPAC1 Rap1B-BODIPY-GDP exchange, fluorescence; series mostly up to 150 µM; activity change, negative = inhibition: at the top concentration;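 further: plate controls were DMSO for no effect and ATA control for full effect; nearly all actives have a fitted effect of over 75% in size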
Summary of the method: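 EPAC1 (100 nM) mixed with 250 nM RAP1B-BODIPY-GDP and 50 uM GDP; compounds in concentration series, 5 min at room temperature. Fluorescence (ex 480/em 540 nm) read every 5 min for 30 min; normalized to ATA control and DMSO.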

Sequence of UniProt O95398 (O95398 whole entry, looked up): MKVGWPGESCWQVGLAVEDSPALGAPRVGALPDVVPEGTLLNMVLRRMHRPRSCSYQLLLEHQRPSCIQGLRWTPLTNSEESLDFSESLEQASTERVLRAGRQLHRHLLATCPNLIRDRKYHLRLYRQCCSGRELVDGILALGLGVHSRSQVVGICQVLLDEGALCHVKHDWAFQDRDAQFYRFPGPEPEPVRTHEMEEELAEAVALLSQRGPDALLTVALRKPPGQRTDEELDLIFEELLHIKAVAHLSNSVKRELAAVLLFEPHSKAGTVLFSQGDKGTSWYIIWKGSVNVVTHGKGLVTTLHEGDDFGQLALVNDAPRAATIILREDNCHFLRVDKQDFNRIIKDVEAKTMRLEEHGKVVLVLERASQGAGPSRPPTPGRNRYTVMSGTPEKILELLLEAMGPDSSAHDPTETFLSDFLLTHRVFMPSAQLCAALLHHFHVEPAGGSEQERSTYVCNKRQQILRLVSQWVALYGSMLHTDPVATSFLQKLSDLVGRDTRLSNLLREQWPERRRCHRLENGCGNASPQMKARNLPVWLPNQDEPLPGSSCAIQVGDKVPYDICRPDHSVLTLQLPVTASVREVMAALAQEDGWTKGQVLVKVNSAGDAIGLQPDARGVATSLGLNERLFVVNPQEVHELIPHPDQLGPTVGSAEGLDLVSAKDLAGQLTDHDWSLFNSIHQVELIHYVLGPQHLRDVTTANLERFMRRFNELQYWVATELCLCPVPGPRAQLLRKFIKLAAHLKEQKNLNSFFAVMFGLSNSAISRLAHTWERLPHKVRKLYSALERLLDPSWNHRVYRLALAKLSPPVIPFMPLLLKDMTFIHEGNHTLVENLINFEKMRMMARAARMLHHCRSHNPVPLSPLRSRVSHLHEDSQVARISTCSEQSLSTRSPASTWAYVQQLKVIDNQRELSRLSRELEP

Activity change, negative = inhibition, inactive:
C=C1C(=O)O[C@@H]2[C@H]3O[C@]3(C)CCC=C(C)CC[C@@H]12, O=C(c1cnccn1)N1CCC[C@@]2(CCN(Cc3ccccc3)C2)C1 11.2%, CCNc1ncc2nc(-c3cc(F)cc(F)c3)c(=O)n(-c3ccc(OC)cc3)c2n1 20.2%, C[n+]1ccccc1/C=N/O, CC[C@@H](C)[C@H]1O[C@]2(CC[C@@H]1C)C[C@@H]1C[C@H](C/C=C(/C)[C@H](O[C@@H]3C[C@H](OC)[C@H](O[C@@H]4C[C@H](OC)[C@@H](O)[C@H](C)O4)[C@H](C)O3)[C@@H](C)/C=C\C=C3CO[C@@H]4[C@H](O)C(C)=C[C@@H](C(=O)O1)[C@]34O)O2 (tested in a mixture with another compound) -8%, N#Cc1cccc(NC(=O)N2CC3(CCN(C(=O)c4ccco4)CC3)C2)c1 27.6%, Clc1ccccc1-c1ccc2ncnc(NCCN3CCOCC3)c2c1 3.82%, COc1ccc(C(=O)OC2CC3CC[C@H](C2)N3C(C)=O)cc1OC (stereo partly specified) 7.9%, CCOc1cc(N)c(Cl)cc1C(=O)NCC1CN(Cc2ccc(F)cc2)CCO1 (stereo unspecified) 2.14%, COc1ccc(-c2cc(C)cc3c2OC(CNC(=O)c2cc(C(C)C)on2)C3)nn1 (stereo unspecified) 8.64%, Cc1cccc(Nc2ccccc2C(=O)O)c1C, Nc1ccc(/C=C/c2ccc(N)cc2S(=O)(=O)O)c(S(=O)(=O)O)c1 -25.9%, COc1ccc(/C=C/C(=O)c2cc(O)ccc2O)cc1 -23.7%, CNCCCN1c2ccccc2CCc2ccccc21, COc1ccc(CN2CCOc3c(cc(-c4cccc(OC)n4)cc3OC)C2)c(O)c1 6.56%, O=S(=O)(c1ccccc1)N1CCC2(CCN(c3ccc(-c4ccccc4)cc3)CC2)CC1 3.88%, O=C(NCc1nnc2n1CCN(Cc1ccccc1C(F)(F)F)CC2)c1ccncc1 2.46%, COc1ccc(-c2ccc(C(=O)N(C)Cc3csc(C)n3)c(N3CCC(N4CCc5ccccc5C4)CC3)n2)cc1 16.2%, N#Cc1cccc(-c2nc(NCc3cccs3)c3ccccc3n2)c1 5.22%, Cc1nc2cnc(Nc3ccccc3)nc2n(C)c1=O -6.65%, CC(=O)c1ccc(-c2ccc3c4c(ccc3c2)OC(CNC(=O)C(C)N2CCOCC2)C4)s1 (stereo unspecified) 8.5%, COCc1c(C(=O)NCC2CCCN(C)C2)cnn1-c1ncc2c(n1)-c1ccccc1CCC2 (stereo unspecified) 20.8%, COCCCNc1ncnc2sc(C(=O)N3CCCCC3)c(C)c12 19.3%, CCN(CC)CCOc1ccccc1C(=O)CCc1ccccc1 19.3%, O=C(c1ccco1)N1CCC2(CC1)CN(c1ccc(-c3ccccc3)cc1)C2 8.15%, O=C1OC(CN2CCOCC2)CN1/N=C/c1ccc([N+](=O)[O-])o1 (stereo unspecified) -3.67% [at 75.8 µM], COc1ccc(Oc2ncc3nc(-c4cccc(C#N)c4)c(=O)n(C)c3n2)cc1 8.64%, CC1=C(/C=C/C(C)=C/C=C/C(C)=C/C=C/C=C(C)/C=C/C=C(C)/C=C/C2=C(C)C[C@@H](O)CC2(C)C)C(C)(C)C[C@H](O)C1 14.6%, Cc1ccsc1C(=CCCN1CCC[C@@H](C(=O)O)C1)c1sccc1C 24.1%, O=C(NC1CCC(=O)N(CCOc2ccccc2)CC1)OCc1ccccc1 (stereo unspecified) -1.95%, Cc1ccc(CN2CCOc3ccc(CN4CCC(Oc5cccnc5)CC4)cc3C2)o1 11.4%, COC(=O)[C@@H]1CCCN1C(=O)c1cnn(-c2ncc3c(n2)-c2ccccc2CCC3)c1C1CC1 10.3%, CC[C@@](N)(C(=O)O)c1ccc(C(=O)O)cc1 6.53%, CCOC(=O)CN[C@@H](C(=O)N1CC[C@H]1C(=O)NCc1ccc(/C(N)=N/O)cc1)C1CCCCC1 -4.38%, COc1ccc(NC(=O)N2CC3(CCN(S(C)(=O)=O)CC3)C2)cc1 -15.8%, O=C(c1cnccn1)N1CCC2(CC1)CN(Cc1nccs1)C2 2.19%, COCC(=O)Nc1cc(C(=O)N2CCCC(C(N)=O)C2)cc2nc(-c3ccccc3)n(C)c12 (stereo unspecified) 7.12%, CN(C)c1ncc2nc(-c3cc(F)cc(F)c3)c(=O)n(-c3ccccc3)c2n1 14.5%, O=C1CC(C(=O)N2CCCC(c3nc(-c4ccncc4)ncc3-c3ccccc3)C2)C2(CCCCC2)O1 (stereo unspecified) 13.2%, CC(C)(COP(=O)(O)OP(=O)(O)OC[C@H]1O[C@@H](n2cnc3c(N)ncnc32)[C@H](O)[C@@H]1OP(=O)(O)O)C(O)C(=O)NCCC(=O)NCCS (stereo partly specified) 13.1%, COc1cc2c(cc1OC)C(=O)Cc1ccc3c(c1CN(C)CC2)OCO3, COc1cccc(-c2ccc(O)c(CNCc3cccc(OC)c3OC)c2)n1 3.51%, CC(=O)OC1CC(OC(C)=O)[C@]2(C)C(CC(OC(C)=O)[C@@]3(C)C4=CC(=O)OC(c5ccoc5)[C@]4(C)CCC32)C1(C)C (stereo partly specified) 0.201%, CN(C)c1ccc(-c2ccc3ncnc(N4CCNCC4)c3c2)cc1 14.8%, N[C@@H](Cn1cc(I)c(=O)n(Cc2ccc(C(=O)O)cc2)c1=O)C(=O)O 6.19%, O=C1CCC(N2C(=O)c3ccccc3C2=O)C(=O)N1 (stereo unspecified), NCCCC[C@@H](N)C(=O)O 8.19%, C[C@H](N)C(=O)N[C@@H](C)P(=O)(O)O 2.37%, CC(C)(C)CC(C)(C)c1ccc(O)c(-n2nc3ccccc3n2)c1 7.94%, Nc1nc2c(ncn2C2CC(O)C(CO)O2)c(=O)[nH]1 (stereo unspecified) -18.8%, CN1C(=O)CN2CCc3ccccc3C2c2cc(Cl)ccc21 (stereo unspecified) 0.562%, COc1cc(=O)n2c(c1C(=O)NCc1ccco1)CCN(C(=O)c1ccccc1-c1ncc[nH]1)CC2 5.84%, O=C1NCCN1CCN1CCC(c2cn(-c3ccc(F)cc3)c3ccc(Cl)cc23)CC1, COc1cc(-c2noc(C)c2C(=O)NCCO)cc(OC)c1OC 9.28%, c1ccc2occc2c1 27.8% [at 320 µM], CC(=O)C[C@H]1c2cc(F)cc(F)c2S(=O)(=O)N1C1CCN(Cc2ccccc2)CC1 9.79%, Cc1cnc(CNc2ncncc2-c2cccc(C#N)c2)cn1 1.79%, COc1c(O)cc2oc3cc(O)c(CC=C(C)C)c(O)c3c(=O)c2c1CC=C(C)C, CC[C@H](C)[C@H](NC(=O)[C@H](C)NC(=O)[C@H](CC(N)=O)NC(=O)[C@H](CCCCN)NC(=O)[C@H](Cc1ccccc1)NC(=O)[C@H](CC(C)C)NC(=O)[C@@H](NC(=O)[C@@H](NC(=O)[C@H](CC(C)C)NC(=O)[C@@H]1CCCN1C(=O)[C@@H](NC(=O)[C@H](CCC(N)=O)NC(=O)[C@H](CO)NC(=O)[C@H](CCCCN)NC(=O)[C@H](CCC(=O)O)NC(=O)[C@H](CO)NC(=O)[C@@H](NC(=O)[C@H](CCSC)NC(=O)[C@H](Cc1ccccc1)NC(=O)CNC(=O)CNC(=O)[C@@H](N)Cc1ccc(O)cc1)[C@@H](C)O)[C@@H](C)O)C(C)C)[C@@H](C)O)C(=O)N[C@H](C(=O)N[C@@H](CCCCN)C(=O)N[C@@H](CC(N)=O)C(=O)N[C@@H](C)C(=O)N[C@@H](Cc1ccc(O)cc1)C(=O)N[C@@H](CCCCN)C(=O)N[C@@H](CCCCN)C(=O)NCC(=O)N[C@@H](CCC(=O)O)C(=O)O)[C@@H](C)CC 18.3% [at 15.3 µM], C=CCCCCCCCCC(=O)O 19.7%, CCCN(CCC)C(=O)C(CCC(=O)OCCCN1CCN(CCOC(=O)Cc2c(C)n(C(=O)c3ccc(Cl)cc3)c3ccc(OC)cc23)CC1)NC(=O)c1ccccc1 (stereo unspecified) 10.3%, COc1ccc2c(c1)CCC1[C@@H]2CCC2(C)[C@@H](NCCCCCCN3C(=O)C=CC3=O)CC[C@@H]12 (stereo partly specified) -0.307%, CC1(C)S[C@@H]2[C@H](NC(=O)Cc3ccccc3)C(=O)N2[C@H]1C(=O)O -3.13%, C[C@]12C[C@H](O)CC(CO)(CO)C1[C@H](O)C[C@@]13CC4[C@@H](CC12)[C@@]4(C)C3 (stereo partly specified) 22.1%, CNC(C)C#Cc1c(-c2cc(OC)c(OC)c(OC)c2)noc1C (stereo unspecified) 8.6%, CCN(CC)CCNC(=O)COc1ccc(OC)cc1 19.9%, Cc1nc2n(c(=O)c1CCN1CCC(c3noc4cc(F)ccc34)CC1)CCCC2O (stereo unspecified) 3.61% [at 75.8 µM], Cc1cccc(CNc2ncnc3ccc(-c4cccc(NS(C)(=O)=O)c4)cc23)c1 5.51%, COCCNc1ccnc(-c2cccc(NS(C)(=O)=O)c2)n1 21.7%, OC[C@@H]1O[C@@H](n2cnc3c(N[C@H]4CCC[C@@H]4O)ncnc32)[C@H](O)[C@H]1O 12.3%, COc1ccc(-c2nc3ccc(C4=NNC(=O)CC4C)cc3[nH]2)cc1 (stereo unspecified) 6.17%, CC(=O)OCC1=C(C(=O)O)N2C(=O)[C@@H](NC(=O)Cc3cccs3)[C@H]2SC1, CCn1nc(C)cc1C(=O)NCC1Cc2cc(C)cc(-c3ccccc3C(=O)OC)c2O1 (stereo unspecified) 7.13%, COc1ccc2[nH]cc(CCNc3ccnc(-c4ccccc4C)n3)c2c1 -14.8%, CCOc1ccc(NC(=O)CC(C)O)cc1 (stereo unspecified) 7.32%, C=CCN1c2ccc(Br)cc2C(=O)CS1(=O)=O -5.24%, CC(C)=CCC/C(C)=C/CC/C(C)=C/CC/C(C)=C/CO, COc1cccc(CN2C(=O)NC(C)(C3CCN(Cc4cnn(C)c4C)CC3)C2=O)c1OC (stereo unspecified) 13.2%, COc1ccc(CN2CCOc3ccc(C(O)c4cccnc4)cc3C2)cc1O (stereo unspecified) 13.6%, CCN(CC)S(=O)(=O)c1ccc(C(=O)O)cc1 5.25%, COc1cccc(-c2nc(NCCN3CCOCC3)c3ccccc3n2)c1 4.52%, COC(=O)C[C@H]1c2ccccc2S(=O)(=O)N1C(C)C 6.97%, Oc1cc2c(c(Cl)c1O)CCNCC2c1ccccc1 (stereo unspecified), CC(=O)OC1CC(OC(C)=O)[C@]2(C)C(CC(=O)[C@]3(C)C2CC[C@@]2(C)C(C(=O)O)OC(=O)C4OC423)C1(C)C (stereo partly specified) -2.45%, Cc1c(C(=O)N(C)C2CCOC2)sc2ncnc(NCC3(c4ccccc4)CCOCC3)c12 (stereo unspecified) 17.7%, COCC(=O)O[C@]1(CCN(C)CCCc2nc3ccccc3[nH]2)CCc2cc(F)ccc2[C@@H]1C(C)C
